Source: PubChem BioAssay AID602310 (National Center for Advancing Translational Sciences (NCATS), 2012)
The whole screen tested about 410,000 compounds, of which about 310 (0.076%) were called active. This list was built around the results that the source calls inconclusive (neither active nor inactive); the mix of calls is not that of the screen. Calls come from the whole dose curve; as a rule, active = well fitted curve in the direction sought with a large enough effect; inconclusive = small, poorly fitted or top-dose-only effect; inactive = flat fitted curve, though single readings scatter. Where the call is inconclusive, the potency comes from a doubtful curve fit.
% is set by controls: 0 for no effect and ±100 for the full control effect; potency is the fitted concentration of half-maximal effect; tags give direction and shape of the fitted curve.
Note: nearly all actives have a fitted effect of over 60% in size.
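Throughout, for activity, negative = active: hits raise eYFP signal because A3G escapes Vif-driven loss.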

The compounds below were run against DNA dC->dU-editing enzyme APOBEC-3G (Homo sapiens) (UniProt Q9HC16) (assay: qHTS for Inhibitors of Vif-A3G Interactions: qHTS). Conditions: HeLa A3G-eYFP + Vif (tagged APOBEC3G with the HIV-1 protein that degrades it), YFP fluorescence, overnight; series mostly up to 46.1 µM; activity, negative = active: at the top concentration.
Sequence of UniProt Q9HC16 (Q9HC16 whole entry, looked up): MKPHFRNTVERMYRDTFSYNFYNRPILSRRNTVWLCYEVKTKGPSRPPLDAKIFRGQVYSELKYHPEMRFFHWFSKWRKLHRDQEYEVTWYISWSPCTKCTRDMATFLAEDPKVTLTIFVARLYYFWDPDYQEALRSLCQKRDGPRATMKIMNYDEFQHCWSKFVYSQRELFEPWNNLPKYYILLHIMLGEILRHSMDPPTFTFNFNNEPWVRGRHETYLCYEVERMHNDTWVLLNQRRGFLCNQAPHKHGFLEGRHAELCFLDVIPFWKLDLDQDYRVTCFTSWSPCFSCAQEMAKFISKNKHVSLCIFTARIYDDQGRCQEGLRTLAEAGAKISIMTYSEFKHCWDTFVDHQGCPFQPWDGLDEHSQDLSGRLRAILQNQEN
Procedure, shortened: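 HeLa cells stably expressing Vif and C-terminally eYFP-tagged A3G, seeded overnight at 37 deg C, then exposed to compound by pintool overnight at 37 deg C. Rise in yellow fluorescence (Ex 488/Em 500-530, Acumen) marks blocked Vif-driven A3G degradation.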
For `CCn1cc2nc(SCC(=O)Nc3ccc(OC)cc3OC)n(Cc3ccc(OC)cc3)c(=O)c2n1`, the Potency was inconclusive: 3.98 µM [inhibitor, full curve].
For `CN(C)c1ccc(-c2ccnc3c2CC(C)(C(=O)Nc2ccc4c(c2)OCO4)O3)cc1` (configuration not stated), the Potency was inconclusive: 22.4 µM [inhibitor, single point].
`O=C1NC(=S)N/C1=C\c1ccc(N2CCOCC2)cc1` was tested, and the “activity, negative = active” value was inactive: -4.83%.
`O=C(COc1ccccc1[N+](=O)[O-])Nc1cccc(Cl)c1N1CCOCC1` was tested, and the Potency was inconclusive: 11.2 µM [inhibitor, partial curve, poor fit].
`COc1ccc(N2CCN(C(=O)c3[nH]c(C(F)(F)F)nc3-c3ccccc3)CC2)cc1` was tested, and the Potency was inconclusive: 15.8 µM [inhibitor, single point].
In the case of `COc1cccc(C(=O)Nc2ccccc2N2CCN(C(=O)c3ccccc3)CC2)c1`, the “activity, negative = active” value is reported as inactive: 0.786%.
With `O=C(O)c1cc2ccccc2c(N=Nc2cccnc2)c1O` the “activity, negative = active” value was inactive: 1.02%.
In the case of `COc1ccc(C[C@@H]2OC3(C=CC(=O)C=C3)O[C@H]2Cc2ccc(OC)cc2)cc1`, the Potency is reported as inconclusive: 1.12 µM [inhibitor, full curve, poor fit].
With `c1ccc(-n2cnc3cc(NCc4cccs4)ccc32)cc1` the Potency was inconclusive: 31.6 µM [inhibitor, single point].
In the case of `O=C(Nc1ccc(-n2cccn2)cc1)C1CCCCN1Cc1cccc2c1OCO2` (configuration not stated), the Potency is reported as inconclusive: 2.82 µM [inhibitor, full curve, poor fit].
`N=c1n(CCN2CCCCC2)c2ccccc2n1CC(O)c1ccc(Cl)c(Cl)c1` (configuration not stated) was tested, and the Potency was inconclusive: 35.5 µM [inhibitor, single point].
In the case of `CC1=C(C(=O)OCc2ccccc2)C(c2ccc(N(C)C)cc2)NC(=O)N1` (configuration not stated), the “activity, negative = active” value is reported as inactive: -1.13%.
`COc1ccc(C(c2c(C)n(C)n(-c3ccccc3)c2=O)c2c(C)n(C)n(-c3ccccc3)c2=O)cc1O` was tested, and the Potency was inconclusive: 22.4 µM [inhibitor, single point].
In the case of `CSC1=NC(C(Cl)(Cl)Cl)N=C(c2ccccc2)N1` (configuration not stated), the Potency is reported as inconclusive: 11.2 µM [inhibitor, partial curve].
For `S=C(NCCCc1cnc[nH]1)NCCCN(Cc1ccc(Cl)cc1)c1ccc(Br)cc1`, the “activity, negative = active” value was inactive: -10.6%.
In the case of `CC(C)CN(C(=O)COC(=O)c1ccc2ccccc2c1)c1c(N)n(Cc2ccccc2)c(=O)[nH]c1=O`, the Potency is reported as inconclusive: 12.6 µM [inhibitor, single point].
For `Cc1cc2n(n1)SC(Nc1cccc3ccccc13)N2` (configuration not stated), the “activity, negative = active” value was inactive: -0.725%.
For `COC(=O)c1ccccc1NC(=O)c1ccc(COc2ccccc2)o1`, the “activity, negative = active” value was inactive: 0.48%.
In the case of `CN(C1=NS(=O)(=O)N=C(N(C)c2ccccc2)O1)c1ccccc1`, the Potency is reported as inconclusive: 35.5 µM [inhibitor, single point].
For `C/C(CC(=O)Nc1ccc(OCc2ccccc2)cc1)=N\NC(=O)C(=O)Nc1ccc(C)c(Cl)c1`, the Potency was inconclusive: 25.1 µM [inhibitor, single point].
For `CCOc1cc(C2C3=C(CCCC3=O)Nc3ccc4ncccc4c32)ccc1O` (configuration not stated), the Potency was inconclusive: 8.91 µM [inhibitor, partial curve, poor fit].
With `COc1ccc(CNC(=O)c2ccc3c(c2)N=C(C)c2c(C)ccc(C)c2S3)cc1` the Potency was inconclusive: 1.41 µM [inhibitor, partial curve, poor fit].
In the case of `O=C(CNC(=O)c1ccc2c(c1)OCO2)N/N=C(Br)/C=C/c1ccccc1`, the Potency is reported as inconclusive: 4.47 µM [inhibitor, partial curve, poor fit].
`Nc1cccc(-c2nc3ccc(C(=O)c4ccccc4)cc3[nH]2)c1` was tested, and the Potency was inconclusive: 1.78 µM [inhibitor, full curve, poor fit].
With `CC(C)c1ccc(-c2c(C#N)c(N)nc(SCC(=O)N3CCCCC3)c2C#N)cc1` the “activity, negative = active” value was inactive: 0.379%.
For `O=C(Nc1cccc(NC(=O)c2cccs2)c1)c1ccc([N+](=O)[O-])o1`, the “activity, negative = active” value was inactive: -4.22%.
With `CC1(C)CC2(C)OC2C2(C1)N=NC(=Nc1ccccc1)O2` (configuration not stated) the Potency was inconclusive: 7.94 µM [inhibitor, partial curve, poor fit].
With `Cc1ccc(NC(=O)c2nc(S(C)(=O)=O)ncc2N(Cc2cccc(F)c2)Cc2ccco2)cc1C` the Potency was inconclusive: 28.2 µM [inhibitor, single point].
In the case of `COCCCNC(=O)Cc1c(C)c2c(cc(C)c3c(C(C)(C)C)coc32)oc1=O`, the Potency is reported as inconclusive: 0.631 µM [inhibitor, full curve, poor fit].
`COC(=O)c1ccc(NCc2cc(O)ccc2O)cc1` was tested, and the Potency was inconclusive: 35.5 µM [inhibitor, single point].
For `COc1ccc(COc2cc(-c3cccc(OC)c3)nc3ccc(N)cc23)cc1`, the Potency was inconclusive: 0.794 µM [inhibitor, full curve].
In the case of `Cc1ccc(S(=O)(=O)N2CCCCC2CCNC(=O)C(=O)NCc2ccccc2)cc1` (configuration not stated), the Potency is reported as inconclusive: 2.24 µM [inhibitor, full curve, poor fit].
In the case of `COc1ccc2cc(C(=O)/C=C/c3cc(OC)c(O)c(OC)c3)ccc2c1`, the Potency is reported as inconclusive: 25.1 µM [inhibitor, single point].
In the case of `Nc1nc(-c2cc(O)ccc2[N+](=O)[O-])cc(-c2ccccc2)c1[N+](=O)[O-]`, the Potency is reported as inconclusive: 15.8 µM [inhibitor, partial curve, poor fit].
With `CC1CCCN(CCOCCOc2ccc(Cl)cc2Br)C1` (configuration not stated) the “activity, negative = active” value was inactive: 4.25%.
In the case of `COc1ccc(N2C(=O)C3C(C2=O)C(C(=O)c2ccc(Cl)cc2)N2CCCC32)cc1` (configuration not stated), the Potency is reported as inconclusive: 22.4 µM [inhibitor, single point].
In the case of `COC(/C(=N/O)c1ccc(Cl)cc1)c1ccccc1` (configuration not stated), the Potency is reported as inconclusive: 22.4 µM [inhibitor, single point].
For `COc1ccc2c(C(=O)CN3CCN(c4ccccc4)CC3)c[nH]c2c1`, the Potency was inconclusive: 31.6 µM [inhibitor, single point].
`CCCCCCN1C=CC=C/C1=C\C=C(C#N)C#N` was tested, and the Potency was inconclusive: 22.4 µM [inhibitor, single point].
In the case of `CCCn1c(C2CCCN2c2nc(-c3cccc(Br)c3)cs2)nc2ccccc21` (configuration not stated), the “activity, negative = active” value is reported as inactive: -3.41%.
For `O=C(Nc1cccc2c1CCCC2)c1cc([N+](=O)[O-])cc([N+](=O)[O-])c1`, the Potency was inconclusive: 25.1 µM [inhibitor, single point].
For `CCCc1nn2c(=O)cc(COC(=O)c3cccc(NC(=O)CCc4ccccc4)c3)nc2s1`, the “activity, negative = active” value was inactive: -5.66%.
With `CC(C)c1ccc(CNn2cnnc2)cc1` the “activity, negative = active” value was inactive: 0.49%.
`Cc1ccc(NC(=O)NCc2ccc3c(c2)OCO3)c(C)c1` was tested, and the “activity, negative = active” value was inactive: -0.731%.
With `CCOc1ccc2c(c1)-c1c(ssc1=S)C(C)(C)N2C(=O)c1ccco1` the Potency was inconclusive: 2.24 µM [inhibitor, full curve, poor fit].
With `C=C1Nc2ccccc2C(=O)N1c1ccc(C(=O)N2CCN(C(=O)c3ccco3)CC2)cc1` the “activity, negative = active” value was inactive: 3.15%.
In the case of `COc1ccc(-c2ccc(CCC(=O)O)n2CC2CCCO2)cc1` (configuration not stated), the Potency is reported as inconclusive: 14.1 µM [inhibitor, single point].
For `CCOC(=O)C1=C(O)c2ccccc2C(=O)/C1=C\c1ccc(C)cc1`, the Potency was inconclusive: 15.8 µM [inhibitor, partial curve, poor fit].
For `Cc1c(CC(=O)NCc2ccccc2)c(=O)oc2c(C)c(O)ccc12`, the Potency was inconclusive: 6.31 µM [inhibitor, full curve, poor fit].
In the case of `Cc1cccc(OCc2nc(C#N)c(NCc3ccccc3Cl)o2)c1`, the “activity, negative = active” value is reported as inactive: -4.44%.
With `O=C(Nc1ccc2c(c1)CCC2)c1ncoc1-c1ccccc1F` the “activity, negative = active” value was inactive: -6.28%.
For `Cc1cccc(OCC(=O)N2CCC(N3CCOCC3)CC2)c1`, the “activity, negative = active” value was inactive: 0.0065%.
For `CC(=O)/C=C1/C(=O)Nc2ccccc21`, the Potency was inconclusive: 35.5 µM [inhibitor, single point].
`CN1CC(c2ccc(Cl)c(Cl)c2)[C@@]2(COc3ccccc3C2=O)[C@@]12C(=O)Nc1ccccc12` (some centres not stated) was tested, and the “activity, negative = active” value was inactive: 0.624%.
`COc1cccc(-c2sc3ccc(OC)cc3c2C#CCC(C)O)c1` (configuration not stated) was tested, and the Potency was inconclusive: 20 µM [inhibitor, single point].
In the case of `CC1CCc2sc(C(=O)OCC(=O)NCc3ccccc3)cc2C1` (configuration not stated), the Potency is reported as inconclusive: 15.8 µM [inhibitor, single point].
For `O=C(c1[nH]c(C(F)(F)F)nc1-c1ccccc1)N1CCN(c2ccccn2)CC1`, the Potency was inconclusive: 12.6 µM [inhibitor, partial curve].
For `CCN1CCC(N(Cc2ccc3c(c2)OCO3)C(=O)Nc2cc(Cl)ccc2C(=O)OC)CC1`, the Potency was inconclusive: 35.5 µM [inhibitor, single point].
For `CCOC(=O)NC1CCc2cc(OC)c(OC)c(OC)c2-c2ccc(SC)c(=O)cc21` (configuration not stated), the “activity, negative = active” value was inactive: -55%.
With `COc1ccccc1Nc1cc2cc(Br)ccc2c(=O)[nH]1` the Potency was inconclusive: 8.91 µM [inhibitor, partial curve].
With `Cc1ccc(Cn2nc(C)c(NC(=O)c3cc(-c4ccc5c(c4)OCO5)on3)c2C)cc1` the Potency was inconclusive: 20 µM [inhibitor, single point].
In the case of `CCOCCCNC(=O)/C(C#N)=C/c1ccc([N+](=O)[O-])o1`, the Potency is reported as inconclusive: 35.5 µM [inhibitor, single point].
With `Cc1ccc(Nc2nnns2)cc1C` the “activity, negative = active” value was inactive: 0.0876%.
With `C=CCn1c(CCc2cc(C(C)(C)C)c(O)c(C(C)(C)C)c2)n[nH]c1=S` the “activity, negative = active” value was inactive: -7.88%.
`CCOC(=O)c1c(-c2ccccc2)oc2ccc(NS(=O)(=O)c3ccc(OC)cc3)cc12` was tested, and the Potency was inconclusive: 1.26 µM [inhibitor, partial curve, poor fit].
In the case of `COc1ccc(NC(=O)c2c(NC(=O)CNCc3ccco3)sc3c2CCC3)cc1`, the “activity, negative = active” value is reported as inactive: -6.84%.
With `CC1(C(=O)Nc2ccc3c(c2)OCO3)Cc2c(-c3ccccc3)ccnc2O1` (configuration not stated) the Potency was inconclusive: 10 µM [inhibitor, partial curve].
